Test results reported in PubChem BioAssay AID1466 (National Center for Advancing Translational Sciences (NCATS), 2008).
Hit rate of the full screen: of about 200,000 compounds, about 10 (0.005%) were called active. The inconclusive results got no clear call from the source; some entries with a clear call stand among them for comparison. Calls come from the whole dose curve; as a rule, active = well fitted inhibition curve with a large enough effect; inconclusive = small, poorly fitted or top-dose-only effect, or effect the other way, or another doubt; inactive = no such curve, though single readings can be large or run the other way. No potency is given beside an inconclusive call; the fits are too rough.

biological target: Lysosomal alpha-glucosidase (Homo sapiens) (UniProt P10253); assay: qHTS Assay for Inhibitors of Human alpha-Glucosidase as a Potential Chaperone Treatment of Pompe Disease; conditions: purified human GAA, 4-MU-alpha-glucoside fluorescence; activity change, negative = inhibition: at 76.9 µM (top of the series) unless noted;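 for activity change, negative = inhibition: plate controls were uninhibited enzyme wells for no effect and no-enzyme background for full effect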
How it was run: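 qHTS format, compound range up to 77 uM. Human lysosomal enzyme at 4 nM, 400 uM 4-MU glucoside substrate, pH 5.0, 20 min room temperature; fluorescence after alkaline stop gives activity normalized to controls.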
Potency is the fitted concentration of half-maximal effect; tags give direction and shape of the fitted curve.

Compound	Potency	activity change, negative = inhibition
Nc1nc(N2CCN(C(=O)c3ccco3)CC2)nc2ccccc12	inconclusive [activator, single point]	
CCN1CCN(CC(=O)N2N=C(c3ccc(OC)cc3)CC2c2ccc(OC)cc2)C(=O)C1=O (stereo not drawn)	inconclusive [inhibitor, single point]	
COC(=O)CSc1nc2cc3c(cc2cc1C)OCCO3	inconclusive [inhibitor, single point]	
Cc1nn(-c2ccccc2)c(=O)c2noc(C)c12		inactive: -3.66% [at 15.4 µM]
O=C(c1ccccc1)n1c(=S)nc2ccccn21		inactive: -1.06%
O=c1oc2c(CN3CCOCC3)c(O)ccc2c2c1CCCC2	inconclusive [activator, partial curve]	
CC(=O)CCc1c(C)[nH]c2ccccc2c1=O		inconclusive: -19.4% [inhibitor]
CN(C)c1ccc(NC(=O)c2ccncc2)c2ccccc12	inconclusive [inhibitor, single point]	
Cc1cc(=O)oc2cc(OS(C)(=O)=O)ccc12	inconclusive [activator, single point]	
CCn1c(C)cc(/C=C2\NC(=O)N(CC(=O)Nc3cccc(C)c3)C2=O)c1C	inconclusive [inhibitor, single point]	
CCn1cc([N+](=O)[O-])c(C(=O)N2N=C(c3ccc(O)c(OC)c3)CC2c2ccccc2O)n1 (stereo not drawn)	inconclusive [inhibitor, single point]	
NC(=O)c1cnn(-c2cc(Oc3ccccc3)ncn2)c1N		inconclusive: 13.3% [activator]
O=c1cc(-c2ccccc2)nc2c(-c3ccccc3)c(C(F)(F)F)[nH]n12	inconclusive [activator, partial curve]	
COc1cccc(CNC(=O)CCC2CCCN(Cc3cc(Cl)ccc3O)C2)c1 (stereo not drawn)		inconclusive: 12.1% [activator]
CC(C)(C)c1ccc(S(=O)(=O)NCc2ccc(C(=O)N3CCOCC3)cc2)cc1	inconclusive [inhibitor, single point]	
Cc1occc1-c1nnc(SCC(=O)Nc2nccs2)n1CCc1ccccc1		inconclusive: -15.6% [inhibitor]
COc1ccccc1CNS(=O)(=O)c1cccc(S(=O)(=O)N2CCOCC2)c1	inconclusive [inhibitor, full curve, poor fit]	
N#C/C(=C\c1ccc(-c2ccccc2Cl)o1)C(=O)Nc1nc2ccccc2s1	inconclusive [inhibitor, partial curve, poor fit]	
